{
  "source": "paper PMC6919601",
  "about": "“Identification of Plasmodium dipeptidyl aminopeptidase allosteric inhibitors by high throughput screening” (PLoS ONE, 2019)",
  "note": "Out of some 110,000 compounds screened, about 230 (0.21%) showed an effect of 50% or more. This is one part of the list.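 Note: 30 min substrate incubation versus DMSO and 10 µM JCP410 controls.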",
  "data": [
    {"target": "DPAP1 (Plasmodium falciparum, UniProt Q8IIJ9)", "sequence (Q8IIJ9 whole entry, looked up)": "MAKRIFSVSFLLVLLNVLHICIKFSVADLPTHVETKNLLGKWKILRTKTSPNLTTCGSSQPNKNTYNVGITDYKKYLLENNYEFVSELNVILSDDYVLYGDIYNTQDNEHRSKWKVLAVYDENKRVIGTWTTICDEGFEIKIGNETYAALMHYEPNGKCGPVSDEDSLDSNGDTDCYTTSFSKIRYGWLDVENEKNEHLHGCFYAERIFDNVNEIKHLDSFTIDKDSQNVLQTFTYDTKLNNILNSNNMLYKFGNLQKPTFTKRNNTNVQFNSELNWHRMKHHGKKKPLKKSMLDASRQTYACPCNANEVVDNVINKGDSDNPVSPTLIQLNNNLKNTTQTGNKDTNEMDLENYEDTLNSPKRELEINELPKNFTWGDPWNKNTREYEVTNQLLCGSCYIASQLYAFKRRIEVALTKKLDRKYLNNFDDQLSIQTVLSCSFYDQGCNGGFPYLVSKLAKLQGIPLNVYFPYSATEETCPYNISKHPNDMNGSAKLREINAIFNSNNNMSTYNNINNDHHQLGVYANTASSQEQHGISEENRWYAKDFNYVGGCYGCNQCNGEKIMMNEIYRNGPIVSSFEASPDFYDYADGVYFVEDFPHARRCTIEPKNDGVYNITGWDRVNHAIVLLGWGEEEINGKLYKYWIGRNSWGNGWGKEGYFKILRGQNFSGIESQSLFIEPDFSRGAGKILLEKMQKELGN", "test": "primary screen, percent inhibition; read by cleavage of a fluorogenic dipeptide substrate; higher = more effect of the substance", "set-up": "species or system P. falciparum D10 trophozoite lysates; single well", "units": {"% Inhibition @ 10 uM": "%"}, "values": [
      {"smiles": "CCOC(=O)c1c(NC(=O)CSc2nnc3scc(-c4ccccc4)n23)sc(C)c1C", "% Inhibition @ 10 uM": 4.08},
      {"smiles": "CCCCCc1cc(C(=O)O)[nH]c1-c1ccccc1", "% Inhibition @ 10 uM": 0.518},
      {"smiles": "C=CCSc1nc2sc3c(c2c(=O)n1CC)CC(C)(C)OC3", "% Inhibition @ 10 uM": -3.26},
      {"smiles": "O=C(NC(NC(=O)c1ccccc1)c1ccccc1)c1ccccc1", "% Inhibition @ 10 uM": 8.23},
      {"smiles": "Cn1c(=O)c(C(=O)Nc2ccc(Cl)cn2)c(O)c2ccccc21", "% Inhibition @ 10 uM": -1.98},
      {"smiles": "COc1ccc(CCNC(=O)CCCn2c(=O)c3cccn3c3cccnc32)c(OC)c1OC", "% Inhibition @ 10 uM": -4.82},
      {"smiles": "CC1=C(C(=O)OCc2ccccc2)C(c2cccs2)C2=C(O)CC(c3cccs3)CC2=N1", "note": "(stereo not drawn)", "% Inhibition @ 10 uM": 2.25},
      {"smiles": "CCOc1cc(C(=O)N(Cc2nc(-c3ccc(OC)cc3)no2)C(C)C)cc(OCC)c1OCC", "% Inhibition @ 10 uM": 2.78},
      {"smiles": "CCC(C)NC(=O)CSc1nc2ccccc2c2nc3ccccc3n12", "note": "(stereo not drawn)", "% Inhibition @ 10 uM": -4.19},
      {"smiles": "CC(C)C[C@H](NC(=O)c1cccc(O)n1)C(=O)NCC#N", "% Inhibition @ 10 uM": -0.778},
      {"smiles": "COc1ccc(OC)c(NC2CCCCC2OC)c1", "note": "(stereo not drawn)", "% Inhibition @ 10 uM": 3.48},
      {"smiles": "CS(=O)(=O)N(CC(=O)Nc1ccc(S(=O)(=O)N2CCCCC2)cc1)c1ccc(F)cc1", "% Inhibition @ 10 uM": -6.22},
      {"smiles": "COc1cc(CO)cc(Br)c1OCc1ccc(C(=O)O)cc1", "% Inhibition @ 10 uM": -2.22},
      {"smiles": "COc1ccc(OC)c(C2C3=C(O)CC(C)(C)CC3=NC(C)=C2C(=O)Nc2ccc(F)cc2)c1", "note": "(stereo not drawn)", "% Inhibition @ 10 uM": -8.35},
      {"smiles": "CCOC(=O)c1ccc(-c2ccc(/C=C(\\C#N)c3nn(-c4ccccc4)c(N)c3C#N)o2)cc1", "% Inhibition @ 10 uM": -0.995},
      {"smiles": "C#CCOc1ccc(/C=C2/C(=O)N(c3nc(C)c(C(=O)OCC)s3)N=C2C)cc1Cl", "% Inhibition @ 10 uM": 2.56},
      {"smiles": "COc1ccccc1CNC(=O)C(NS(=O)(=O)c1ccc2nc(C)sc2c1)C(C)C", "note": "(stereo not drawn)", "% Inhibition @ 10 uM": 1.62},
      {"smiles": "COc1ccc(CCN2CC34C=CC(O3)C(C(=O)NCc3ccc(C)cc3)C4C2=O)cc1OC", "note": "(stereo not drawn)", "% Inhibition @ 10 uM": 2.59},
      {"smiles": "Cc1cc(OCC(=O)Nc2ccccn2)cc(C)c1Cl", "% Inhibition @ 10 uM": -7.93},
      {"smiles": "COc1ccc(NC(=O)CN(c2ccccc2C)S(=O)(=O)c2ccc(C)cc2)cc1OC", "% Inhibition @ 10 uM": 4.67},
      {"smiles": "Cc1nc2nc(CNC(=O)OC(C)(C)C)nn2c(C)c1CCC(=O)NCCc1ccc(Cl)cc1", "% Inhibition @ 10 uM": 4.4},
      {"smiles": "CCOC(=O)c1c(-c2ccccc2)oc2cc(Br)c(OS(C)(=O)=O)cc12", "% Inhibition @ 10 uM": 2.85},
      {"smiles": "COc1ccc(C(=O)Nc2sc3c(c2C(N)=O)CCC3)c(OC)c1", "% Inhibition @ 10 uM": 2.54},
      {"smiles": "CC1CCC(NC(=O)CC/N=c2/c(N3CCCC3)c(O)c2=O)CC1", "note": "(stereo not drawn)", "% Inhibition @ 10 uM": 1.68},
      {"smiles": "CCOc1ccc(C(=O)NCCC(C)C)cc1", "% Inhibition @ 10 uM": -3.01},
      {"smiles": "O=C1NC(=O)/C(=C\\c2ccc(-c3ccccc3)o2)N1", "% Inhibition @ 10 uM": 0.145},
      {"smiles": "O=C(Cn1ncc2ccccc21)NC1CCCc2ccccc21", "note": "(stereo not drawn)", "% Inhibition @ 10 uM": 1.68},
      {"smiles": "COc1ccc(C2CC(=O)NC3=C2C(=O)CC(c2ccccc2Cl)C3)cc1", "note": "(stereo not drawn)", "% Inhibition @ 10 uM": -1},
      {"smiles": "CC(Cc1ccc(F)cc1)N1CCC(C(N)=O)CC1", "note": "(stereo not drawn)", "% Inhibition @ 10 uM": -7.18},
      {"smiles": "COc1ccc(C(=O)NCc2ccccn2)cc1", "% Inhibition @ 10 uM": 3.53},
      {"smiles": "CC(C)N(Cc1ccccc1)c1c(-c2ccccc2)c(=O)c1=O", "% Inhibition @ 10 uM": -3.47},
      {"smiles": "Cc1ccc(CNC(=O)c2ccc(Cn3c(SCc4ccccc4)nc4cccnc43)cc2)o1", "% Inhibition @ 10 uM": 4.79},
      {"smiles": "O=C(COc1ccccc1Cl)Nc1ccc(F)c(Cl)c1", "% Inhibition @ 10 uM": 4.12},
      {"smiles": "CCc1nn(C(C)C(=O)NC(C)c2ccc3c(c2)OCCO3)c(=O)c2cc3occc3n12", "note": "(stereo not drawn)", "% Inhibition @ 10 uM": -5.63},
      {"smiles": "O=C(NCc1ccccc1Cl)C1CCN(S(=O)(=O)c2cccs2)CC1", "% Inhibition @ 10 uM": -4.79},
      {"smiles": "Fc1cc2nc(S)n(Cc3ccccc3)c2cc1F", "% Inhibition @ 10 uM": 12.2},
      {"smiles": "O=C1S/C(=C\\c2c(NCC3CCCO3)nc3ccccn3c2=O)C(=O)N1Cc1ccccc1", "note": "(stereo not drawn)", "% Inhibition @ 10 uM": 2.25},
      {"smiles": "CC(=O)NCCc1nc2ccccc2n1Cc1cccc(Cl)c1", "% Inhibition @ 10 uM": -0.551},
      {"smiles": "O=C(Nc1nccs1)C1CCC(CNc2c(N3CCOCC3)c(=O)c2=O)CC1", "note": "(stereo not drawn)", "% Inhibition @ 10 uM": -0.447},
      {"smiles": "COc1ccc(OCc2nc3ccccc3[nH]2)cc1", "% Inhibition @ 10 uM": -2.66},
      {"smiles": "O=S(=O)(Nc1ccccn1)c1ccc(-n2cccn2)cc1", "% Inhibition @ 10 uM": -1.26},
      {"smiles": "CCc1[nH]nc2c1C(c1cccc(OC)c1OC)C(C#N)=C(N)O2", "note": "(stereo not drawn)", "% Inhibition @ 10 uM": -7.3},
      {"smiles": "NC(=O)/C(=C\\c1ccc2c(c1)OCO2)NC(=O)c1ccc(Br)o1", "% Inhibition @ 10 uM": -2.58},
      {"smiles": "COc1ccccc1-c1nc(N)nc(N)n1", "% Inhibition @ 10 uM": 3.42},
      {"smiles": "CC(C)C[C@H](NC(=O)c1cc(-c2ccc(Cl)cc2)cs1)C(=O)NCC#N", "% Inhibition @ 10 uM": -1.82},
      {"smiles": "Cn1nc(-c2ccc(C(=O)NCc3cccnc3)cc2)c2ccccc2c1=O", "% Inhibition @ 10 uM": -1.43},
      {"smiles": "CCOc1ccc(C(=O)Nc2sc(C)c(C)c2C#N)cc1", "% Inhibition @ 10 uM": 15.2},
      {"smiles": "Cc1nnc(Nc2cc(Br)cc(Br)c2O)s1", "% Inhibition @ 10 uM": -2.12},
      {"smiles": "Cc1ccc2onc(CC(=O)Nc3nc(C)cs3)c2c1", "% Inhibition @ 10 uM": -3.49},
      {"smiles": "COc1ccc(C)cc1N(CC(=O)NCc1ccccn1)S(=O)(=O)c1ccccc1", "% Inhibition @ 10 uM": 1.52},
      {"smiles": "CC1CC(C)CN(CCCNC(=O)Cn2ncc3c4ccccc4n(Cc4ccccc4)c3c2=O)C1", "note": "(stereo not drawn)", "% Inhibition @ 10 uM": 0.137},
      {"smiles": "Cc1ccc(N2C(=O)C3C4C=CC(C4)C3(C)C2=O)cc1Cl", "note": "(stereo not drawn)", "% Inhibition @ 10 uM": 4.08},
      {"smiles": "O=C(c1sc(N2CCOCC2)nc1-c1ccccc1)c1c[nH]c2ccccc12", "% Inhibition @ 10 uM": 72.2},
      {"smiles": "C/C(=C\\c1ccccc1)CN1CCCN(C)CC1", "% Inhibition @ 10 uM": -2},
      {"smiles": "COc1ccc(CC(=O)Nc2nnc(C(C)(C)C)s2)cc1", "% Inhibition @ 10 uM": 1.58},
      {"smiles": "O=c1c2c(-c3ccccc3)csc2nc2c3ccccc3c(N3CCOCC3)nn12", "% Inhibition @ 10 uM": -3.71},
      {"smiles": "Nc1c(C(=O)NCCc2c[nH]c3ccccc23)sc2nc(-c3cccnc3)ccc12", "% Inhibition @ 10 uM": 4.33},
      {"smiles": "N#Cc1ccc(/C=C2/NC(=O)N(Cc3ccccc3F)C2=O)cc1", "% Inhibition @ 10 uM": -3.63},
      {"smiles": "CC(=O)Nc1ccccc1/C=C/c1ccc2c(C)cc(C)c(O)c2n1", "% Inhibition @ 10 uM": 4.28},
      {"smiles": "COc1cccc(CNC(=O)Cn2sc3ccccc3c2=O)c1", "% Inhibition @ 10 uM": -5.95},
      {"smiles": "O=c1oc2ccccc2n1Cc1ccc(Cl)cc1Cl", "% Inhibition @ 10 uM": 1.4},
      {"smiles": "CCCN1C(=O)/C(=C\\c2ccncc2)S/C1=N/c1ccccc1", "% Inhibition @ 10 uM": 0.389},
      {"smiles": "CN(CCc1ccccn1)Cc1cccc(F)c1", "% Inhibition @ 10 uM": 4.55}
    ]}
  ]
}
